Out of some 39,000 compounds screened, about 220 (0.56%) showed activity. The list shows a part of the results.
Test system: Escherichia coli K-12 BW25113
Test: relative growth (OD600 normalised to plate interquartile mean) (fraction); higher = less growth inhibition, active = 0.2 or less
Conditions: 50 µM; LB; incubation time: overnight (16-24 h)
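Further: static incubation at 37 °C against the wild-type strain, values averaged over two biological replicates.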

| Compound | relative growth |
| --- | --- |
| C[C@@H]1CN([C@H](C)CO)C(=O)c2c(c3ccccc3n2C)-c2ccccc2CO[C@H]1CN(C)C(=O)Nc1cccc(C(F)(F)F)c1 | inactive: 0.993 |
| COCC(=O)N1C[C@@H](C)[C@@H](OC)CN(C)C(=O)c2ccc(NC(=O)c3cc(C)on3)cc2OC[C@@H]1C | inactive: 0.975 |
| COCCNC(=O)C[C@H]1CC[C@H]2[C@@H](COC[C@@H](O)CN2C(=O)Nc2ccc3c(c2)OCO3)O1 | inactive: 1.02 |
| O=C(O)[C@H]1O[C@@H](Oc2c(-c3ccc(O)cc3)oc3cc(O)cc(O)c3c2=O)[C@H](O)[C@@H](O)[C@@H]1O | inactive: 1.01 |
| CO[C@H](CN(C)S(=O)(=O)c1cn(C)cn1)[C@H](C)CN(C(=O)Nc1ccc(C(F)(F)F)cc1)[C@@H](C)CO | inactive: 0.872 |
| C[N+](C)(C)CCCC[C@@H]1NC(=O)[C@@H]2C[C@H](C(=O)NCCCCCCNC(=O)CS)[C@H](c3cccc(OCCO)c3)N2C1=O | inactive: 1.01 |
| O=C(C[C@H]1CC[C@H]2[C@@H](COC[C@@H](O)CN2S(=O)(=O)c2ccc(Cl)cc2)O1)NCc1ccncn1 | inactive: 0.988 |
| COc1ccc(NC(=O)Nc2ccc3c(c2)[C@@H]2C[C@@H](CC(=O)NCc4ccncc4)O[C@H](CO)[C@@H]2O3)cc1 | inactive: 0.937 |
| Cc1noc(C)c1S(=O)(=O)N(C)C[C@@H]1OCCCC[C@H](C)Oc2ccc(NC(=O)Nc3cccc4ccccc34)cc2C(=O)N([C@H](C)CO)C[C@H]1C | inactive: 1.04 |
| C[C@@H]1CC=CC[C@@H](c2cccc(Cl)c2)NC(=O)[C@H](Cc2ccccc2)N(C)C(=O)c2ccccc2O1 | inactive: 1.03 |
| Cc1cc(C(=O)Nc2cccc3c2O[C@@H](CN(C)C(=O)Nc2c(C)noc2C)[C@@H](C)CN([C@@H](C)CO)C3=O)n(C)n1 | inactive: 0.884 |
| CCCn1c(=O)[nH]c2nc(-c3ccc(S(=O)(=O)N4CCN(c5ccc(Cl)cc5)CC4)cc3)[nH]c2c1=O | inactive: 1.01 |
| COc1ccc(S(=O)(=O)Nc2cccc3c2O[C@@H](CN(C)S(=O)(=O)c2cccs2)[C@H](C)CN([C@H](C)CO)C3=O)cc1 | inactive: 1.01 |
| C[C@H]1CCCCO[C@H](CN(C)S(=O)(=O)c2ccc(Cl)cc2)[C@@H](C)CN([C@@H](C)CO)C(=O)c2cc(NS(=O)(=O)c3ccccc3)ccc2O1 | inactive: 1.03 |
| C=CCC[C@@H](Cc1ccc(F)cc1)C(=O)O[C@@H](CNC(=O)[C@H](CC=C)CC(=O)N(CCO)Cc1ccccc1)c1ccccc1 | inactive: 1.06 |
| COc1ccc([C@@H]([C@H](Cc2ccccc2)OC(C)=O)N2C[C@@H](OC(C)=O)[C@@H]3C(=NO[C@H]3c3ccccc3)[C@@H]2Cc2ccccc2)cc1 | inactive: 1.01 |
| C[C@H](CO)N1C[C@H](C)[C@@H](CN(C)Cc2ccc(Cl)c(Cl)c2)OCCCC[C@H](C)Oc2ccc(NC(=O)Nc3ccc4c(c3)OCO4)cc2C1=O | inactive: 0.99 |
| C[C@@H]1CN([C@@H](C)CO)C(=O)c2cc(NC(=O)NC3CCCCC3)ccc2O[C@@H](C)CCCCO[C@@H]1CN(C)C(=O)NC1CCCCC1 | inactive: 0.971 |
| Cn1cnc(S(=O)(=O)N2C[C@H](O)COC[C@H]3O[C@H](CC(=O)NC4Cc5ccccc5C4)CC[C@@H]32)c1 | inactive: 0.996 |

| Compound | relative growth |
| --- | --- |
| C[C@@H]1CN([C@H](C)CO)C(=O)Cc2cc(NS(=O)(=O)c3cn(C)cn3)ccc2O[C@@H]1CN(C)C(=O)Nc1ccc(F)cc1 | inactive: 0.983 |
| CNC[C@H]1OCCCC[C@@H](C)Oc2ccc(NC(=O)Nc3cccc4ccccc34)cc2C(=O)N([C@H](C)CO)C[C@H]1C | inactive: 0.968 |
| COc1ccc([C@@H](O)[C@@H](CCO)OC)cc1O | inactive: 0.988 |
| C[C@H]1CN([C@@H](C)CO)C(=O)c2cc(NC(=O)Cc3ccccc3)ccc2O[C@H]1CN(C)S(=O)(=O)c1cn(C)cn1 | inactive: 0.972 |
| CCOC(=O)c1c(C)oc(N)c1C(N)=O | inactive: 0.956 |
| C[C@H]1CN([C@@H](C)CO)C(=O)Cc2cc(NC(=O)Nc3ccc(F)cc3)ccc2O[C@H]1CN(C)S(=O)(=O)c1cn(C)cn1 | inactive: 0.996 |
| C[C@@H]1CN([C@H](C)CO)C(=O)c2cc(NC(=O)c3ccncc3)ccc2O[C@@H](C)CCCCO[C@H]1CN(C)Cc1ccc(Cl)c(Cl)c1 | inactive: 0.963 |
| COCCNC(=O)C[C@H]1C[C@@H]2c3cc(NS(C)(=O)=O)ccc3O[C@@H]2[C@@H](CO)O1 | inactive: 1.03 |
| C[C@@H]1CCCCO[C@H](CN(C)S(=O)(=O)c2cccs2)[C@@H](C)CN([C@H](C)CO)C(=O)c2cc(NC(=O)c3ccccc3)ccc2O1 | inactive: 1.07 |
| C[C@@H]1CN([C@@H](C)CO)C(=O)Cc2cc(NC(=O)Nc3ccc(F)cc3)ccc2O[C@@H]1CN(C)C(=O)Nc1cccc2ccccc12 | inactive: 0.987 |
| Nc1nnc(C(F)(F)F)[nH]1 | inactive: 1.02 |
| COc1ccc(COC[C@]23NC(=O)N(C(=O)c4ccccc4)[C@H](c4ccccc4O2)[C@H]3CO[Si](C)(C)C(C)(C)C)cc1 | inactive: 1.02 |
| C[C@@H]1CN(CCO[Si](C)(C)C(C)(C)C)C(=O)c2cc(NC(=O)Nc3ccccc3)ccc2O[C@@H](C)CCCCO[C@H]1CN(C)S(=O)(=O)c1ccc(F)cc1 | inactive: 1 |
| C[C@@H]1CN([C@H](C)CO)C(=O)c2cc(NS(=O)(=O)c3ccccc3)ccc2O[C@@H]1CN(C)S(=O)(=O)c1ccccc1 | inactive: 1.01 |
| CCS(=O)(=O)N1C[C@]2(CN(Cc3ccc4c(c3)OCO4)[C@@H](CO)c3c2c2ccc(cc2n3C)OC)C1 | inactive: 1.02 |
| C[C@H]1CN([C@@H](C)CO)S(=O)(=O)c2ccc(-c3cccnc3)cc2O[C@H]1CN(C)C(=O)NC1CCCC1 | inactive: 1.05 |
| COc1ccc(CN(C)C[C@H]2OCCCC[C@@H](C)Oc3ccc(NC(=O)Nc4cccc5ccccc45)cc3C(=O)N([C@@H](C)CO)C[C@@H]2C)cc1 | inactive: 0.979 |
| CC(C)CC#Cc1ccc2c(c1)O[C@@H](CN(C)C(=O)Cc1cccnc1)[C@H](C)CN([C@@H](C)CO)S2(=O)=O | inactive: 0.998 |

— the supplement of paper PMC9446081
